Experimental data taken from the supplement of paper PMC2702839.
Where a name gives a salt, the structure may show the parent alone. The list shows a part of the results.

Tested on: Schistosoma mansoni schistosomula
Assay: phenotypic hit in primary schistosomula screen (any phenotype vs DMSO control) (binary (1 = hit, 0 = no phenotype)); higher = active (phenotype induced)
Settings: 1 µM; time (d): 7

Row | Structure (SMILES) | phenotypic hit
1 | CN(C)CCC(c1ccc(Br)cc1)c1ccccn1 (stereo unspecified) [brompheniramine maleate] | inactive: 0
2 | COC(=O)c1c(OC)cc2c(c1C)Oc1c(Cl)c(O)c(Cl)c(C)c1C(=O)O2 [gangaleoidin] | inactive: 0
3 | COc1cc(CNC(=O)CCCC/C=C/C(C)C)ccc1O [e-capsaicin] | inactive: 0
4 | O=C(O)[C@@H]1[C@H]2C[C@H]3c4[nH]c5ccccc5c4CCN3C[C@@H]2CC[C@@H]1O [yohimbic acid] | inactive: 0
5 | CO/N=C(\C(=O)N[C@@H]1C(=O)N2C(C(=O)O)=C(COC(C)=O)CS[C@H]12)c1csc(N)n1 [cefotaxime sodium] | inactive: 0
6 | O=C(O)c1c2ccccc2cc2ccccc12 [anthracene-9-carboxylic acid] | inactive: 0
7 | C=C1C2CCC3(C)C(c4ccoc4)OC(=O)CC13OC1CC(=O)C(C)(C)C(CC(=O)OC)C12C (stereo unspecified) [angolensic acid, methyl ester] | inactive: 0
8 | COc1cccc2c1CCC1CC(=O)CC[C@]21C (stereo partly specified) [14-methoxy-4,4-bisnor-8,11,13-podocarpatrien-3-one] | inactive: 0
9 | OC[C@@H](O)[C@@H](O[C@@H]1O[C@H](CO)[C@@H](O)[C@H](O)[C@H]1O)[C@H](O)[C@@H](O)CO [glucitol-4-gucopyanoside] | active: 1
10 | COc1cc(O)c2c(=O)cc(C)oc2c1CC=C(C)C [heteropeucenin, methyl ether] | inactive: 0
11 | COC(=O)C[C@H]1C(C)(C)[C@@H](OC(=O)C(C)C)[C@@H]2CC3=C4CC(=O)O[C@@H](c5ccoc5)[C@]4(C)CCC3[C@@]1(C)C2=O (stereo partly specified) [fissinolide c] | inactive: 0
12 | CC(=O)O[C@@H]1/C=C/[C@@](C)(O)C(=O)[C@@H](C)C/C=C/[C@H]2[C@@H]3O[C@]3(C)[C@@H](C)[C@H]3[C@H](Cc4ccccc4)NC(=O)[C@@]312 [cytochalasin q] | active: 1
13 | C[N+](C)(C)CC(O)CC(=O)[O-] (stereo unspecified) [carnitine hydrochloride] | inactive: 0
14 | CC(C)Oc1ccc2c(=O)c(-c3ccccc3)coc2c1 [ipriflavone] | inactive: 0
15 | CC(=O)Nc1nnc(S(N)(=O)=O)s1 [Acetazolamide] | inactive: 0
16 | CC(=O)Nc1c(I)cc(I)c(C(=O)O)c1I [acetriazoic acid] | inactive: 0
17 | CC(=O)O[C@]1(C)CC[C@@]23C[C@H]1C(C)(C)[C@@H]2CC[C@H]3C [cedryl acetate] | inactive: 0
18 | Cc1cc2cc3c(C)cc(=O)oc3c(C)c2o1 [trioxsalen] | inactive: 0
19 | CC(=O)O[C@@H]1CC2C(C)(C)CCC[C@]2(C)C2CC[C@]3(C)C(=CC(=O)O[C@H]3c3ccoc3)[C@@]21C (stereo partly specified) [deoxodeoxydihydrogedunin] | inactive: 0
20 | CCN(CC)CCNC(=O)c1ccc(N)cc1 [Procainamide hydrochloride] | inactive: 0
21 | CCCCCCOc1ccccc1C(N)=O [exalamide] | inactive: 0
22 | COc1ccc(-c2coc3c(OC)c(OC)cc(OC)c3c2=O)cc1 [isotectorigenin trimethyl ether] | inactive: 0

Row | Structure (SMILES) | phenotypic hit
23 | O=C(Oc1cc(O)cc2c1C[C@@H](OC(=O)c1cc(O)c(O)c(O)c1)[C@@H](c1cc(O)c(O)c(O)c1)O2)c1cc(O)c(O)c(O)c1 [epigallocatechin 3,5-digallate] | inactive: 0
24 | C[C@@H]1CCC[C@H](C)N1NC(=O)c1ccc(Cl)c(S(N)(=O)=O)c1 [clopamide] | inactive: 0
25 | CC[C@H]1OC(=O)[C@H](C)[C@@H](O[C@H]2C[C@@](C)(OC)[C@@H](O)[C@H](C)O2)[C@H](C)[C@@H](O[C@@H]2O[C@H](C)C[C@H](N(C)C)[C@H]2O)[C@](C)(O)C[C@@H](C)CN(C)[C@H](C)[C@@H](O)[C@]1(C)O [azithromycin] | inactive: 0
26 | CC(=O)c1cc(CC=C(C)C)c(O)c(CC=C(C)C)c1 [3,5-diprenyl-4-hydroxyacetophenone] | inactive: 0
27 | CCOC(=O)C(Cc1ccc(O)cc1)NC(C)=O (stereo unspecified) [acetyl tyrosine ethyl ester] | inactive: 0
28 | COc1cc2c(cc1/C=C/C(=O)c1cc(OC)c(OC)cc1OC)OCO2 [6-methoxyprosogerin b diethyl ether] | active: 1
29 | COC(=O)C(O)c1ccccc1 (stereo unspecified) [mandelic acid, methyl ester] | inactive: 0
30 | Nc1ccc(S(=O)(=O)Nc2nccs2)cc1 [sulfathiazole] | inactive: 0
31 | O=c1c(-c2ccc3c(c2)OCO3)coc2cc(O)ccc12 [pseudobaptigenin] | inactive: 0
32 | COc1cc2ccc(=O)oc2c(O)c1O [fraxetin] | inactive: 0
33 | CC(C)[N+]1(C)[C@@H]2CC[C@H]1C[C@@H](OC(=O)C(CO)c1ccccc1)C2 (stereo partly specified) [ipratropium bromide] | inactive: 0
34 | COC(=O)C[C@H]1C(C)(C)C2(Cl)O[C@@]34CC2C(=O)[C@]1(C)C3CC[C@]1(C)C4=CC(=O)O[C@H]1c1ccoc1 (stereo partly drawn) [3-chloro-8beta-hydroxycarapin, 3,8-hemiacetal] | inactive: 0
35 | Cc1ccc(-c2cc(C(F)(F)F)nn2-c2ccc(S(N)(=O)=O)cc2)cc1 [celecoxib] | inactive: 0
36 | COc1ccc2c(=O)c(-c3ccc(O[C@@H]4O[C@H](CO)[C@@H](O)[C@H](O)[C@H]4O)cc3)coc2c1 [isoononin] | inactive: 0
37 | COc1c(Cl)ccc(Cl)c1C(=O)O [dicamba] | inactive: 0
38 | NC[C@H]1O[C@H](O[C@H]2[C@H](O)[C@@H](O[C@H]3O[C@H](CO)[C@@H](O)[C@H](N)[C@H]3O)[C@H](N)C[C@@H]2N)[C@H](N)C[C@@H]1O [tobramycin] | inactive: 0
39 | CCN(CCCCOC(=O)c1ccc(OC)c(OC)c1)C(C)Cc1ccc(OC)cc1 (stereo unspecified) [mebeverine hydrochloride] | inactive: 0
40 | Cc1cc(C(C)(C)C)cc(C)c1CC1=NCCN1 [xylometazoline hydrochloride] | inactive: 0
41 | CC(C)C[C@@H](NC(=O)OCC1c2ccccc2-c2ccccc21)C(=O)O | inactive: 0
42 | CCN(CC)CCOCCOC(=O)C1(c2ccccc2)CCCC1 [Carbetapentane citrate] | inactive: 0
43 | Cc1cc(=O)c2c(O)c3c(cc2o1)OCC(C)CC3 (stereo unspecified) [dihydroptaeroxylin] | inactive: 0
44 | CC(=O)O[C@@H]1CC(=O)[C@@]2(C)C(CC(=O)[C@]3(C)C2CC[C@@]2(C)[C@H](c4ccoc4)OC(=O)C4OC423)C1(C)C (stereo partly specified) [1,7-dideacetoxy-1,7-dioxokhivorin] | inactive: 0

Row | Structure (SMILES) | phenotypic hit
45 | CCCCC1C(=O)N(c2ccccc2)N(c2ccc(O)cc2)C1=O (stereo unspecified) [oxyphenbutazone] | inactive: 0
46 | O=C(CCBr)N1CCN(C(=O)CCBr)CC1 [pipobroman] | inactive: 0
47 | COc1cc(OC)c2ccc(=O)oc2c1 [citropten] | inactive: 0
48 | Cc1cc(O)c2c(c1O)C(=O)c1c(O)cc(C)c(O)c1C2=O [1,4,5,8-tetrahydroxy-2,6-dimethylanthroquinone] | inactive: 0
49 | COC(=O)C[C@H]1C2(C)CC34OC5(C)O[C@@]6([C@H](OC(C)=O)C(OC(C)=O)[C@]7(C)C(/C(=C(/O)C(C)C)C(=O)O[C@H]7c7ccoc7)[C@@]6(O5)[C@H](OC(C)=O)[C@@]3(O)C2OC(=O)C(C)C)[C@]14C (stereo partly specified) [bussein] | inactive: 0
50 | CC(=O)Nc1ccc(OC(=O)c2ccccc2O)cc1 [acetaminosalol] | inactive: 0
51 | CCCOc1ccccc1-c1nc2[nH]nnc2c(=O)[nH]1 [Zaprinast] | inactive: 0
52 | CC(C)=CCC1=C(O)C(=O)c2ccccc2C1=O [lapachol] | inactive: 0
53 | COc1ccc(Cl)cc1C(=O)NCCc1ccc(S(=O)(=O)NC(=O)NC2CCCCC2)cc1 [Glibenclamide] | inactive: 0
54 | COC(=O)c1c(C)c2c(c(C)c1OC)OC(=O)c1c(C)c(Cl)c(OC)c(Cl)c1O2 [leoidin dimethyl ether] | inactive: 0
55 | NCCC(=O)N[C@@H](Cc1c[nH]cn1)C(=O)O [carnosine] | inactive: 0
56 | Cc1cc(C)nc(NS(=O)(=O)c2ccc(N)cc2)n1 [sulfamethazine] | inactive: 0
57 | CC(C)=CCc1c2c(c3occ(-c4ccc(O)c(O)c4)c(=O)c3c1O)C=CC(C)(C)O2 [pomiferin] | inactive: 0
58 | COc1cc(NS(=O)(=O)c2ccc(N)cc2)ncn1 [sulfamonomethoxine] | inactive: 0
59 | CC1(C)O[C@@H]2C[C@H]3[C@@H]4C[C@H](F)C5=CC(=O)C=C[C@]5(C)[C@@]4(F)[C@@H](O)C[C@]3(C)[C@]2(C(=O)CO)O1 [fluocinolone acetonide] | inactive: 0
60 | CN(C(=O)CN(CCO)CC(=O)N(C)C(C)(C)Cc1ccccc1)C(C)(C)Cc1ccccc1 [oxethazaine] | inactive: 0
61 | c1coc(CNc2ncnc3[nH]cnc23)c1 [kinetin] | inactive: 0
62 | CC(=O)Oc1cc(-c2coc3cc(OC(C)=O)c(OC(C)=O)c(OC(C)=O)c3c2=O)cc(OC(C)=O)c1OC(C)=O [iriginol hexaaceatate] | inactive: 0
63 | O=c1oc2cc(O)ccc2s1 [thioxolone] | inactive: 0
64 | CN/C(=N\CCSCc1nc[nH]c1C)NC#N [Cimetidine] | inactive: 0
65 | N[C@@H](CSCSC[C@H](N)C(=O)O)C(=O)O [djenkolic acid] | inactive: 0
66 | O=C(O)c1cc2cc(Cc3cccnc3)ccc2o1 [furegrelate sodium] | inactive: 0
